# Measurements: the supplement of paper PMC4166925
# ± gives the standard deviation of the averaged measurements. The full ranking holds about 33,000 sequences; the median of “E-score (dimensionless, -0.5 to 0.5)” is about -0.046, and the highest 2% start at about 0.36. The list shows a part of the results.
# System: T1, SpTbr T-box DNA-binding domain (GST fusion)
# T1 sequence: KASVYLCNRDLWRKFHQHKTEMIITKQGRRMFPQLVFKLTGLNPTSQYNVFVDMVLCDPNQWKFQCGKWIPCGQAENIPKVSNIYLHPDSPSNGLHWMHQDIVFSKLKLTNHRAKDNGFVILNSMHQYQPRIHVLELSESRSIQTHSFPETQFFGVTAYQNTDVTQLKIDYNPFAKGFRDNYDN
# Assay: PBM E-score of 8-mer (E-score (dimensionless, -0.5 to 0.5)); Tbr is Tbrain of the sea star Patiria miniata (Pm) or the sea urchin Strongylocentrotus purpuratus (Sp); higher = stronger binding preference; most listed sequences are background and not binding sites
# Conditions: the construct has about 5 more residues each side
# In short: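 Using the Universal PBM Analysis Suite, every ungapped 8-mer received an enrichment E-score averaged over duplicate arrays. Probe intensities came from double-stranded Universal Agilent oligonucleotide arrays incubated with 200 nM GST-fused Tbr T-box DNA-binding domain in PBS (pH 7.5). That protein was expressed in BL21 E. coli at 20 °C and purified by glutathione affinity chromatography.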
row,Sequence,PBM E-score of 8-mer
1,GCCTAACA,0.191 ± 0.035
2,CAATGCAA,-0.23 ± 0.025
3,GTACCTTA,-0.0975 ± 0.091
4,CGGAGACC,-0.167 ± 0.085
5,CTGACAGA,-0.0045 ± 0.057
6,CTATTAAG,-0.104 ± 0.077
7,AGCCGCCA,0.0532 ± 0.054
8,TCACGGAA,0.107 ± 0.02
9,AAGCATCC,-0.199 ± 0.0045
10,CGGGCTCA,-0.104 ± 0.096
11,GTGTTACA,0.362 ± 0.02
12,GACGACAA,0.182 ± 0.012
13,AAACGCTA,-0.0675 ± 0.065
14,AGGCGATA,0.1413 ± 0.0011
15,GCCGTAGC,-0.321 ± 0.0047
16,CGTCAGAG,0.0148 ± 0.088
17,GGGCCTAC,-0.273 ± 0.039
18,CACTGGCG,0.162 ± 0.084
19,ATGTCCCG,-0.277 ± 0.061
20,GCACCACC,0.164 ± 0.016
21,CCTACAAA,-0.136 ± 0.078
22,ACTGTGCT,0.0323 ± 0.028
23,ACCCGAGA,0.0223 ± 0.0071
24,AGACCCGG,-0.162 ± 0.0053
25,CGGTGAGA,0.257 ± 0.012

row,Sequence,PBM E-score of 8-mer
1,CAATACAC,0.146 ± 0.021
2,GTTTAATA,-0.165 ± 0.047
3,AAGCCGAA,-0.284 ± 0.0089
4,ACTGACTA,-0.0734 ± 0.06
5,ACCTCTAT,0.155 ± 0.075
6,CCGTACCC,-0.248 ± 0.056
7,CGCCGCCA,0.192 ± 0.042
8,AAAACCTA,-0.188 ± 0.12
9,AAGTAAAA,-0.274 ± 0.042
10,AATCCAAG,-0.166 ± 0.021
11,TCCGGACA,-0.126 ± 0.028
12,TACCTATA,-0.192 ± 0.0052
13,GCTCGTAA,-0.123 ± 0.1
14,GCCACTAA,0.216 ± 0.011
15,ACTCGGCA,-0.0163 ± 0.00063
16,GCACACAA,0.06665 ± 0.00032
17,AAGTGTCA,0.46288 ± 2.8e-05
18,CAAATGTG,0.265 ± 0.052
19,AGGGAGAT,0.0592 ± 0.029
20,AAGTGAAC,-0.0796 ± 0.11
21,GTGCTCCA,-0.101 ± 0.1
22,ACAAAAGC,-0.097 ± 0.13
23,ATGATACC,-0.165 ± 0.025
24,AACGCTGC,0.105 ± 0.045
25,CGTAAGCC,-0.177 ± 0.033

row,Sequence,PBM E-score of 8-mer
1,GTAGGTGA,0.379 ± 0.023
2,TCAGATGA,-0.155 ± 0.012
3,AGTAATAG,-0.0501 ± 0.058
4,CGATGGCC,-0.0924 ± 0.0053
5,CTCGACTA,-0.133 ± 0.0041
6,AGGGGCCA,-0.101 ± 0.029
7,CAGGGCAC,-0.0884 ± 0.051
8,GCAGTACC,0.0866 ± 0.049
9,ATCTGTAG,-0.206 ± 0.018
10,TACACGGA,0.123 ± 0.019
11,GCCACAGC,0.00288 ± 0.017
12,AACTCAAA,-0.0558 ± 0.087
13,AAGCGACG,0.151 ± 0.018
14,TATCTAAA,-0.254 ± 0.016
15,AAAAAGCC,-0.163 ± 0.035
16,AGATTGTA,0.0312 ± 0.06
17,GGTTTCGA,-0.126 ± 0.067
18,ATGGGGAG,-0.243 ± 0.051
19,CCGGTAAG,-0.243 ± 0.052
20,GCGCTCTA,0.0862 ± 0.029
21,TAACGCGA,0.314 ± 0.02
22,GATCGCGA,0.338 ± 0.0064
23,CTGTACAA,-0.0804 ± 0.027
24,TACGGAGA,-0.122 ± 0.047
25,TGACGAAA,0.138 ± 0.003

row,Sequence,PBM E-score of 8-mer
1,CGCCATAC,0.03843 ± 0.00028
2,CCGAAGTA,-0.204 ± 0.11
3,AGTTTTAT,-0.224 ± 0.059
4,TAGAAGAA,-0.345 ± 0.019
5,AATCAACT,-0.0329 ± 0.046
6,CAAATAAC,-0.00177 ± 0.023
7,AACCATTC,-0.0667 ± 0.039
8,CAATGCCA,-0.0874 ± 0.0037
9,CGTTCTTA,-0.122 ± 0.014
10,ACATCGCC,0.0883 ± 0.049
11,TGGCATAA,-0.0047 ± 0.0079
12,CGACATAG,-0.00643 ± 0.053
13,TCCTGCAA,-0.0918 ± 0.019
14,CGTACGCA,-0.0455 ± 0.046
15,GGGGCGAC,0.0921 ± 0.09
16,TGACTGCA,0.0892 ± 0.055
17,CTGGAGAC,-0.0939 ± 0.021
18,AAAGGACG,-0.22 ± 0.047
19,AAAAATTG,-0.0805 ± 0.083
20,TGCATCAA,-0.0456 ± 0.044
21,ATATAAAG,-0.191 ± 0.09
22,GGCGCATA,-0.175 ± 0.028
23,CAAGACCG,-0.109 ± 0.032
24,ACTGCCTC,-0.214 ± 0.05
25,CATGAGAC,-0.201 ± 0.071

row,Sequence,PBM E-score of 8-mer
1,CTCTGAAG,-0.247 ± 0.045
2,ATCATCCA,-0.0921 ± 0.058
3,TGGCCTAA,-0.198 ± 0.016
4,AACCGTCT,0.0342 ± 0.089
5,CACATCGC,0.333 ± 0.027
6,AAAACGTC,-0.038 ± 0.097
7,AAAGCCAC,-0.166 ± 0.034
8,AGGCCCGC,-0.15 ± 0.036
9,GTCAAAAC,-0.004 ± 0.043
10,GATAGTAA,-0.0634 ± 0.015
11,TATGTACA,-0.174 ± 0.083
12,CCCACTAG,-0.0652 ± 0.1
13,GTGAGCTA,0.00722 ± 0.013
14,AAGAAATC,-0.193 ± 0.04
15,CCCCGTGA,0.0419 ± 0.024
16,CGCAGGTC,0.0308 ± 0.0051
17,GAGAATAA,0.118 ± 0.0021
18,AAACTAGC,-0.155 ± 0.057
19,GGATAAAC,-0.0975 ± 0.024
20,AAAGCACA,0.0829 ± 0.029
21,GGTTACAA,0.0273 ± 0.066
22,AACGGGCG,0.16 ± 0.027
23,AATACATA,-0.00454 ± 0.11
24,AACCTGCA,-0.103 ± 0.068
25,TATAAATA,-0.167 ± 0.0029

row,Sequence,PBM E-score of 8-mer
1,GGGTTTAC,0.0179 ± 0.066
2,ATACCTAA,0.0493 ± 0.055
3,ATACGCCG,-0.0834 ± 0.026
4,AGCGAGTA,0.0903 ± 0.024
5,CTGAGACC,-0.22 ± 0.0077
6,GATCTCAA,0.0536 ± 0.028
7,ACTGGCAC,0.234 ± 0.019
8,AGTGCCAA,0.359 ± 0.0081
9,GGATGGCC,-0.231 ± 0.008
10,GCTCATGA,-0.147 ± 0.068
11,GAGGGGTA,-0.14 ± 0.082
12,AGAGCGAA,-0.0554 ± 0.085
13,CATTAGAC,-0.214 ± 0.019
14,AATGCGTC,0.0536 ± 0.068
15,CGGCTACC,-0.112 ± 0.01
16,CTGGCTCC,-0.178 ± 0.053
17,AGAGCCTC,-0.168 ± 0.0022
18,GTTCCTTA,-0.0268 ± 0.02
19,ACGGGAAG,-0.0949 ± 0.038
20,CAGAGTAA,0.0139 ± 0.072
21,CAGAGATA,-0.098 ± 0.025
22,TCATCGCA,0.264 ± 0.028
23,AGAGGCAG,-0.121 ± 0.079
24,AATAGTGA,0.0198 ± 0.057
25,AGGGAGTG,0.233 ± 0.029

row,Sequence,PBM E-score of 8-mer
1,AGCACGTG,0.241 ± 0.041
2,ACTAGCCC,-0.16 ± 0.038
3,AACTGTAT,-0.112 ± 0.043
4,CCTCATAG,-0.0788 ± 0.034
5,CCAGGAAG,-0.149 ± 0.0075
6,GCTAGTAC,0.0899 ± 0.098
7,AGGCAACT,-0.109 ± 0.049
8,TATCCTCA,0.176 ± 0.009
9,AAGGGACC,-0.0351 ± 0.055
10,AACGAAAT,0.0374 ± 0.056
11,ACAACACA,0.349 ± 0.0079
12,CAACCGAA,-0.0342 ± 0.021
13,GCGGGTAC,0.0188 ± 0.012
14,ACGGTAAG,-0.178 ± 0.082
15,AGAATGGC,0.00479 ± 0.045
16,ACAGCCAT,-0.0859 ± 0.01
17,AGTTCGAT,-0.0203 ± 0.1
18,AATGGGGG,-0.382 ± 0.027
19,AAGAAAGC,0.00357 ± 0.021
20,AACTCCGT,-0.0754 ± 0.066
21,ACAGAGAT,-0.098 ± 0.015
22,CACGCACG,0.206 ± 0.036
